According to PubChem BioAssay AID686970 (National Center for Advancing Translational Sciences (NCATS), 2013):
The whole screen tested about 360,000 compounds, of which about 6,000 (1.7%) were called active. This list was built around the results that the source calls inconclusive (neither active nor inactive); the mix of calls is not that of the screen. Calls come from the whole dose curve; as a rule, active = well fitted cell-killing curve with a large enough effect; inconclusive = small, poorly fitted or top-dose-only effect, or effect the other way; inactive = flat fitted curve, though single readings scatter. Potencies of inconclusive entries are left out as doubtful fits.

Test: qHTS for induction of synthetic lethality in tumor cells producing 2HG: qHTS for the HT-1080-NT fibrosarcoma cell line;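 note: NT is the 2HG producing partner of a matched IDH1 knockdown line; nearly all actives have a fitted effect of over 55% in size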;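 for activity, negative = less viability: 0% = DMSO-treated cells and -100% = media-only wells without cells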
Settings: HT-1080-NT fibrosarcoma viability, CellTiter-Glo ATP luminescence, 48 h; activity, negative = less viability: at 46.1 µM (top of the series) unless noted
Summary of the method: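 Toxicity toward the 2HG-producing NT line was scored as %Activity, normalised to DMSO and no-cell wells, from CellTiter-Glo luminescence after 48 hours' treatment.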
Potency is the fitted concentration of half-maximal effect; tags give direction and shape of the fitted curve.

SMILES | Potency | activity, negative = less viability
CCOc1ccc(CCN2C(=S)N([C@@H](Cc3ccc(O)cc3)CN3CCC[C@@H]3CN3C(=S)NC[C@@H]3CC(C)C)C[C@@H]2Cc2ccc(O)cc2)cc1 | active: 16.4 µM | –
COc1cc(/C=C/C(=O)c2ccc(NS(=O)(=O)c3ccc(C)cc3)cc2)ccc1OC(F)F | inconclusive [cytotoxic, single point] | –
C[C@@H]1CN([C@H](C)CO)C(=O)c2cccc(NC(=O)NC3CCCCC3)c2O[C@@H]1CN(C)C(=O)Nc1ccc(C(F)(F)F)cc1 | inconclusive [cytotoxic, single point] | –
Cc1noc(C)c1S(=O)(=O)N(CC(=O)NCc1ccc2c(c1)OCO2)c1ccc(C(C)C)cc1 | inactive | –
Cc1nnc(-c2ccccc2)c(=O)n1/N=C/c1c(O)ccc2ccccc12 | – | inconclusive: -30.3% [cytotoxic]
Cc1nn(Cc2ccc(Cl)cc2)c(C)c1NC(=O)C(c1ccccc1)c1ccccc1 | inactive | –
COC/C=C/C1=CC2=CC(=O)C(C)(OC(=O)c3cnc4ccccc4n3)C(=O)C2=CN1c1ccc(OC)cc1 (centres undefined) | inactive | –
CCOC(=O)c1ccc(N2C(=O)c3n[nH]c(C)c3C2c2ccco2)cc1 (centres undefined) | inactive | –
COc1ccc(NC(=O)/C(C#N)=C\c2ccc(Br)o2)cc1 | inconclusive [rising, partial curve] | –
CC1CC(C)CN(C(=O)c2cccc(S(=O)(=O)Nc3cc(C(F)(F)F)ccc3Cl)c2)C1 (centres undefined) | inconclusive [cytotoxic, single point] | –
NC(=O)c1cccc(-c2coc3c(C(=O)NCCc4ccccc4)cccc23)c1 | inactive | –
COc1ccc(N(S(=O)(=O)c2ccccc2)S(=O)(=O)c2ccccc2)c(N)c1 | inconclusive [cytotoxic, single point] | –
Fc1ccc2nc(Nc3nc4c(F)cc(F)cc4s3)sc2c1 | inactive | –
O=C(C[n+]1ccccc1)NNc1ccccc1 | active: 2.59 µM | –
CS(=O)(=O)Nc1cccc(-c2ccc3nncn3c2)c1 | inconclusive [rising, partial curve] | –
COc1cccc(-c2cnc3c(NC=O)cc(-c4cccc(NC(C)=O)c4)cn23)c1 | inconclusive [cytotoxic, single point] | –
COc1ccc(-c2[nH]ncc2/C=N/NC(=O)c2cc(Br)ccc2O)c(OC)c1 | inconclusive [cytotoxic, single point] | –
COc1ccc2c(c1)C(=O)N(c1ccccc1)C(=O)C2 | inactive | –
CCCS(=O)(=O)N1CCCC(C(=O)Oc2ccc(OC)cc2)C1 (centres undefined) | inactive | –
CCOCCC(=O)Nc1ccc2c(c1)c(=O)n(C)n2C/C=C/c1ccccc1 | inconclusive [cytotoxic, full curve] | –
COc1cc(C(=O)Oc2cccc(C=O)c2)cc(OC)c1OC | inconclusive [cytotoxic, single point] | –
CC(C)(C)OC(=O)NCCCCCNC(=O)c1[nH]cnc1C(=O)N[C@@H](Cc1ccccc1)C(=O)OCc1ccccc1 | inconclusive [cytotoxic, single point] | –

SMILES | Potency | activity, negative = less viability
Cc1ccc(-c2nn(-c3ccccc3)cc2/C=C/C(=O)Nc2cccc(S(N)(=O)=O)c2)cc1 | inconclusive [cytotoxic, single point] | –
COc1cc(NC(=O)NCc2ccco2)ccc1-c1ccc(NC(=O)NCc2ccco2)cc1OC | inconclusive [cytotoxic, single point] | –
COc1cc(/C=N/NC(=O)c2cncc(Br)c2)cc([N+](=O)[O-])c1O | active: 16.4 µM | –
Cc1occc1C(=O)NCc1ccc(C(=O)O)o1 | inconclusive [rising, partial curve, poor fit] | –
O=C(Nc1cccc(S(=O)(=O)N2CCOCC2)c1)c1ccc(Cl)nc1 | inactive | –
COc1ccc(CC(=O)Nc2c(C(=O)N3CCN(c4ncccn4)CC3)oc3ccccc23)cc1 | inconclusive [rising, partial curve] | –
COc1ccc(-c2nc3c4ccccc4ccn3c2C=O)cc1 | inconclusive [rising, partial curve, poor fit] | –
CC(=O)O[C@@H]1[C@H]2[C@@H](C[C@@H](C)[C@@H]3C=CC(=O)[C@@]13C)OC(=O)[C@@H]2C | inactive | –
CCOC(=O)c1oc2cccc(OCC(O)CNC(C)C)c2c1C (centres undefined) | inconclusive [cytotoxic, single point] | –
OCC1(CCOc2ccccc2)CCN(Cc2nc3ccc(F)cc3[nH]2)CC1 | inactive | –
CCN(CC)c1ccc2oc(=O)c(C)nc2c1 | inconclusive [cytotoxic, single point] | –
CC(C)n1c(O)c(/C=C2\C=NN=C2c2ccccc2)sc1=S | active: 20.6 µM | –
O=C(COc1ccccc1CNCc1ccccc1)Nc1ccccc1 | inconclusive [cytotoxic, single point] | –
NS(=O)(=O)c1ccc(CCNC(=O)C(=O)NCC2OCCN2S(=O)(=O)c2ccc(F)cc2)cc1 (centres undefined) | inconclusive [rising, partial curve, poor fit] | –
O=S(=O)(NCc1ccccc1)c1ccc(S(=O)(=O)N(Cc2ccccn2)Cc2ccco2)cc1 | inconclusive [cytotoxic, single point] | –
CN(C)c1cc2c(cc1NC(=O)c1ccccc1Cl)n(C)c(=O)n2C | inactive | –
Fc1cccc(NC(=S)NNc2c3ccccc3nc3ccccc23)c1 | inconclusive [cytotoxic, single point] | –
O=C(/C=C/Nc1ccc(Br)cc1F)c1ccccc1 | inconclusive [cytotoxic, single point] | –
Cc1cc(C)c(C#N)c(Sc2nc(C)c([N+](=O)[O-])c(C)c2C#N)n1 | active: 16.4 µM | –
Cn1cnc(S(=O)(=O)NC2CCN(Cc3ccccc3)CC2)c1 | inactive | –
O=C(NCCc1c[nH]c2ccccc12)C(=O)Nc1ccccc1 | inactive | –
O=C(O)CCc1ccc(-c2cccs2)o1 | inconclusive [cytotoxic, single point] | –
